In PMC10371798:
Results are given in words; binding and its absence hold for the method and conditions named. Some results given as binding are weak or reduced against the parent protein; the word gives no strength. Sequences can lack the tags named with a protein.

Chains of the proteins cited; added tags and fusions are not shown. A line that says so, or that is headed by a name, gives the form on record, which may keep a tag or linker. Residues count along the entry.
human RPTPζ ectodomain (amino acids 34-629) fused to human IgG1 Fc or to FcYTS (P23471, residues 34-629): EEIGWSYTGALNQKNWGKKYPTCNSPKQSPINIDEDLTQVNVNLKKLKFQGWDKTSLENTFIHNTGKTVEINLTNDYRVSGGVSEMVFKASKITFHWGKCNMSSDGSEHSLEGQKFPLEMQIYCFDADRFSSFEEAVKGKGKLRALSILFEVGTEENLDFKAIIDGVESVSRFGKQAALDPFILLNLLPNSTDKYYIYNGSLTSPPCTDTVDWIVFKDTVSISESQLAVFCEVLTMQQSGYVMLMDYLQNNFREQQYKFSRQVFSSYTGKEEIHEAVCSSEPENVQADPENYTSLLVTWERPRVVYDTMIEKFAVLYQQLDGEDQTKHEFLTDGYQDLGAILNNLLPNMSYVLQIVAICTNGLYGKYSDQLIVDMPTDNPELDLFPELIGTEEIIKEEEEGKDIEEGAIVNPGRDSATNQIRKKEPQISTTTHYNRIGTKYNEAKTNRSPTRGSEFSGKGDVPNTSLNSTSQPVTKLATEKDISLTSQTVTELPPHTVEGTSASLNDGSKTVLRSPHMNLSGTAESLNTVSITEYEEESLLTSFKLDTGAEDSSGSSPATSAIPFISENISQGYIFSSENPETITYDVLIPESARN
FN domain of human RPTPζ (amino acid residues 310-410) fused to human IgG1 Fc (P23471, residues 310-410): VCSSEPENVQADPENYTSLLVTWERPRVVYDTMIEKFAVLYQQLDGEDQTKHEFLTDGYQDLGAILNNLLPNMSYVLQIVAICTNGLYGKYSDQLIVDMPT
UniProt Q05909, residues 54-728: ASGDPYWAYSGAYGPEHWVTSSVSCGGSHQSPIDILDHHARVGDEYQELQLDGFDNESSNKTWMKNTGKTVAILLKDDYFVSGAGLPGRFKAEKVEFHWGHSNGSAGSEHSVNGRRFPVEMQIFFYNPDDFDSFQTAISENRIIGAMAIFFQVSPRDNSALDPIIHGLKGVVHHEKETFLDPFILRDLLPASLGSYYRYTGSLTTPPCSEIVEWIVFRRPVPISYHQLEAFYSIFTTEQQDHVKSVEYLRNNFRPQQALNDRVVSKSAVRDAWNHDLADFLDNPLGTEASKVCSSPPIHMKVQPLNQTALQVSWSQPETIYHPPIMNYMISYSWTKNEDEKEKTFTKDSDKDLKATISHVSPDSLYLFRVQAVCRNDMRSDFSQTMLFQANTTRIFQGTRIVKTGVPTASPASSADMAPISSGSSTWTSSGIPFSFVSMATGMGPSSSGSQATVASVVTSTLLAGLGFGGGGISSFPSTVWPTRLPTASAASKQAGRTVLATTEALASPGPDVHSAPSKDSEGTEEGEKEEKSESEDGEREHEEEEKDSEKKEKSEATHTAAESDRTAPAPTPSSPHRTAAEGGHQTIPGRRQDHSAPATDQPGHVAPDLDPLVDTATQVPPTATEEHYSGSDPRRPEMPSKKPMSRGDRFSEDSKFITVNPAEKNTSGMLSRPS

B1: extracellular region of human contactin-1 excluding the GPI anchor region (amino acids 1-991) fused to Fc or FcYTS (Fc fusion, UniProt Q12860 21-991)
chain: EFTWYRRYGHGVSEEDKGFGPIFEEQPINTIYPEESLEGKVSLNCRARASPFPVYKWRMNNGDVDLTSDRYSMVGGNLVINNPDKQKDAGIYYCLASNNYGMVRSTEATLSFGYLDPFPPEERPEVRVKEGKGMVLLCDPPYHFPDDLSYRWLLNEFPVFITMDKRRFVSQTNGNLYIANVEASDKGNYSCFVSSPSITKSVFSKFIPLIPIPERTTKPYPADIVVQFKDVYALMGQNVTLECFALGNPVPDIRWRKVLEPMPSTAEISTSGAVLKIFNIQLEDEGIYECEAENIRGKDKHQARIYVQAFPEWVEHINDTEVDIGSDLYWPCVATGKPIPTIRWLKNGYAYHKGELRLYDVTFENAGMYQCIAENTYGAIYANAELKILALAPTFEMNPMKKKILAAKGGRVIIECKPKAAPKPKFSWSKGTEWLVNSSRILIWEDGSLEINNITRNDGGIYTCFAENNRGKANSTGTLVITDPTRIILAPINADITVGENATMQCAASFDPALDLTFVWSFNGYVIDFNKENIHYQRNFMLDSNGELLIRNAQLKHAGRYTCTAQTIVDNSSASADLVVRGPPGPPGGLRIEDIRATSVALTWSRGSDNHSPISKYTIQTKTILSDDWKDAKTDPPIIEGNMEAARAVDLIPWMEYEFRVVATNTLGRGEPSIPSNRIKTDGAAPNVAPSDVGGGGGRNRELTITWAPLSREYHYGNNFGYIVAFKPFDGEEWKKVTVTNPDTGRYVHKDETMSPSTAFQVKVKAFNNKGDGPYSLVAVINSAQDAPSEAPTEVGVKVLSSSEISVHWEHVLEKIVESYQIRYWAAHDKEEAANRVQVTSQEYSARLENLLPDTQYFIEVGACNSAGCGPPSDMIEAFTKKAPPSQPPRIISSVRSGSRYIITWDHVVALSNESTVTGYKVLYRPDGQHDGKLYSTHKHSIEVPIPRDGEYVVEVRAHSDGGDGVVSQVK
B2: domains FN1-Fg of human tenascin-R (residues 325-1358) fused to Fc or FcYTS (Fc fusion, UniProt Q92752 325-1358)
chain: AVAPPEDLRVAGISDRSIELEWDGPMAVTEYVISYQPTALGGLQLQQRVPGDWSGVTITELEPGLTYNISVYAVISNILSLPITAKVATHLSTPQGLQFKTITETTVEVQWEPFSFSFDGWEISFIPKNNEGGVIAQVPSDVTSFNQTGLKPGEEYIVNVVALKEQARSPPTSASVSTVIDGPTQILVRDVSDTVAFVEWIPPRAKVDFILLKYGLVGGEGGRTTFRLQPPLSQYSVQALRPGSRYEVSVSAVRGTNESDSATTQFTTEIDAPKNLRVGSRTATSLDLEWDNSEAEVQEYKVVYSTLAGEQYHEVLVPRGIGPTTRATLTDLVPGTEYGVGISAVMNSQQSVPATMNARTELDSPRDLMVTASSETSISLIWTKASGPIDHYRITFTPSSGIASEVTVPKDRTSYTLTDLEPGAEYIISVTAERGRQQSLESTVDAFTGFRPISHLHFSHVTSSSVNITWSDPSPPADRLILNYSPRDEEEEMMEVSLDATKRHAVLMGLQPATEYIVNLVAVHGTVTSEPIVGSITTGIDPPKDITISNVTKDSVMVSWSPPVASFDYYRVSYRPTQVGRLDSSVVPNTVTEFTITRLNPATEYEISLNSVRGREESERICTLVHTAMDNPVDLIATNITPTEALLQWKAPVGEVENYVIVLTHFAVAGETILVDGVSEEFRLVDLLPSTHYTATMYATNGPLTSGTISTNFSTLLDPPANLTASEVTRQSALISWQPPRAEIENYVLTYKSTDGSRKELIVDAEDTWIRLEGLLENTDYTVLLQAAQDTTWSSITSTAFTTGGRVFPHPQDCAQHLMNGDTLSGVYPIFLNGELSQKLQVYCDMTTDGGGWIVFQRRQNGQTDFFRKWADYRVGFGNVEDEFWLGLDNIHRITSQGRYELRVDMRDGQEAAFASYDRFSVEDSRNLYKLRIGSYNGTAGDSLSYHQGRPFSTEDRDNDVAVTNCAMSYKGAWWYKNCHRTNLNGKYGESRHSQGINWYHWKGHEFSIPFVEMKMRPYNHRLMAGRKRQSLQF
B3: EGF repeats of human tenascin-R (residues 201-324) fused to Fc or FcYTS (Fc fusion, UniProt Q92752 201-324)
chain: EPYCPLGCSSRGVCVDGQCICDSEYSGDDCSELRCPTDCSSRGLCVDGECVCEEPYTGEDCRELRCPGDCSGKGRCANGTCLCEEGYVGEDCGQRQCLNACSGRGQCEEGLCVCEEGYQGPDCS

Legend:
Assay in all cases: AlphaScreen or HTRF; conditioned media of Fc and FcYTS fusion proteins mixed with Strep-Tactin donor beads and protein A acceptor beads; 150 mM NaCl, 20 mM Na-Hepes pH 7.5, 2 mM CaCl2, 2 mM MgCl2, 2 mg/ml BSA, 0.2% Triton-X100, 0.2% Tween-20; 1 h at room temperature; signal divided by that of the FcYTS protein with Fc only; a pair counts with a signal over background of at least two in each orientation
[1] = target: human RPTPζ ectodomain (amino acids 34-629) fused to human IgG1 Fc or to FcYTS (human) (UniProt P23471)
[2] = target: mouse RPTPγ ectodomain (amino acids 54-728) fused to Fc or FcYTS (mouse) (UniProt Q05909)
[3] = target: aggrecan construct from which the GAG regions were deleted (residues 31-2530 with 680-2276 replaced by GS) fused to Fc or FcYTS (UniProt P16112)
[4] = substrate: FN domain of human RPTPζ (amino acid residues 310-410) fused to human IgG1 Fc (human) (UniProt P23471)

| Binder | binding [1] | binding [2] | binding [3] | binding [4] |
| --- | --- | --- | --- | --- |
| B1 | binds | – | – | – |
| B2 | binds | no binding | binds | binds |
| B3 | no binding | – | – | – |
